These results are taken from PubChem BioAssay AID1508624 (National Center for Advancing Translational Sciences (NCATS), 2021).

Out of some 48,000 compounds screened, about 120 (0.25%) were called active. Not shown: some 4% with an inconclusive outcome. The call rests on the fitted dose curve; in most records, active means well fitted activation curve with a large enough effect; inconclusive means small, poorly fitted or top-dose-only effect, or another doubt; inactive means no such curve, though single readings can be large or run the other way. Some of the results follow.

This assay in a line: Primary qHTS for Identification of Small Molecule Activators of Huntingtin-Antisense Promoter Activity. Further: nearly all actives have a fitted effect of over 55% in size. The note with it: HEK293 HTT-AS promoter firefly luciferase reporter (activity 0% = vehicle and -100% = no light), 24 h; series mostly up to 57.5 µM; activity change, positive = activation: at the top concentration. The gist of the method:
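HEK293 cells carrying firefly luciferase reporters were seeded at 2,500 per well in Opti-MEM and cultured for 24 h. They were then treated with compounds at up to 57.5 uM final for 24 h at 37 degrees C before Dual-Glo luminescence readout.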
As for `C=CCC(CC=C)(CNC(=O)C(=O)Nc1ccc(C)cc1)c1ccccc1`, the “activity change, positive = activation” value is inactive: 28.3%.
With `COc1cccc(Cn2c(=O)n(-c3cccc(Cl)c3)c(=O)c3c4c(sc32)CN(C(C)=O)CC4)c1`, the “activity change, positive = activation” value is inactive: -39%.
With `CCOc1ccc(NC(=O)CN2CCN(S(=O)(=O)c3ccc(OC)cc3)CC2)cc1` the figure was inactive: -16%.
As to `CCOc1cc(OCC)cc(C(=O)Nc2cccc(-c3nc4ccccc4[nH]3)c2)c1`, the “activity change, positive = activation” value is inactive: -68.1%.
The figure for `COc1ccccc1-c1nnc(C2CCN(C(=O)c3cccc(C)c3)CC2)o1` is inactive: -11.9%; for `CCn1c(=O)cc(OCC(=O)NCc2ccccc2OC)c2ccccc21` it is inactive: -11.8%; for `Cc1ccccc1Nc1nn2c(=O)c3ccc(C(=O)NCc4ccccc4)cc3nc2s1` it is inactive: -21%.
The figure for `O=C(C1CC1)N1CC[C@@H](Cn2c(-c3ccc(-c4ccc5occc5c4)cc3)nc3cnccc32)C1` is inactive: 3.9%; for `CCN(CC)CCNC(=O)C(=O)NCC(c1ccc2c(c1)OCO2)N1CCOCC1` (configuration not stated) it is inactive: -10.7%; for `COCc1cc(C)nc2c1C(=O)NC(c1ccc(C)cc1)N2Cc1ccccc1` (configuration not stated) it is inactive: -26.1%.
The figure for `O=C(CSc1cn(CC(=O)N2CCCCC2)c2ccccc12)NCc1ccccc1` is inactive: -29.1%.
`CCCN1C(=O)c2[nH]nc(-c3ccccc3)c2C1c1cccc(O)c1` (configuration not stated): the “activity change, positive = activation” value is inactive: -20.9%.
The figure for `CCOc1ccc(-c2nnc(SCC(=O)NCc3ccccc3Cl)o2)cc1` is inactive: -5.33%; for `Cc1ccc(NC(=O)c2oc3ccccc3c2NC(=O)Cc2ccccc2)cc1` it is inactive: 5.92%.
As for `CCOc1ccc(CNC(=O)C2CCN(c3nnc(-n4c(C)ccc4C)s3)CC2)cc1`, the “activity change, positive = activation” value was inactive: -41%.
The figure for `CCOc1ccc(S(=O)(=O)N2CCN(c3cccc(C(F)(F)F)c3)CC2)cc1OCC` is inactive: -18.8%; for `COc1ccccc1NC(=O)CSC1=Nc2ccccc2C2=NC(Cc3ccccc3)C(=O)N12` (configuration not stated) it is inactive: -15.1%; for `COc1ccc2c(c1)CCc1sc(NC(=O)c3cccc(Br)c3)nc1-2` it is inactive: -16.3%.
The figure for `O=C(NCc1ccccc1F)c1sc2ncccc2c1-n1cccc1` is inactive: -4.95%.
Turning to `CCn1cc2nc(SCC(=O)Nc3ccc(C)cc3)n(Cc3ccc(C)cc3)c(=O)c2n1`, the “activity change, positive = activation” value was inactive: -2.75%.
As to `COC(=O)CN1C(=O)C(C)(C)c2cc(S(=O)(=O)Nc3ccc(Br)cc3F)ccc21`, the “activity change, positive = activation” value is inactive: -21.3%.
In the case of `O=C(O)Cn1cnnn1`, the “activity change, positive = activation” value is inactive: 0.636%.
The figure for `Cc1[nH]c2ccc(Br)cc2c1CCNC(=O)c1cc2ccccc2oc1=O` is inactive: -13.7%.
The figure for `CCN(CC)c1ccc(NC(=O)CN2CCN(c3ccccc3F)CC2)cc1` is inactive: 1.18%; for `O=S(=O)(NCCS(=O)(=O)N1CCN(c2cccc(Cl)c2)CC1)c1ccc(F)cc1` it is inactive: -20.2%; for `CCOc1ccc(C2=NC(c3cccs3)=Nc3ccc(CC)cc3N2)cc1OCC` it is inactive: 14.2%.
With `CNCCc1ccccn1` the figure was inactive: 2.54%; with `CC(=O)N1CCCc2cc(S(=O)(=O)N3CCCC(C(=O)Nc4ccc(C)cc4C)C3)ccc21` (configuration not stated), inactive: -10.3%; with `Cc1cccc(NC(=O)CN2C(=O)C(c3ccccc3)=NC23CCC(C)CC3)c1` (configuration not stated), inactive: -20.9%.
Turning to `CC(=O)c1cccc(-n2c(=O)c3c4c(sc3n(Cc3cccc(C)c3)c2=O)CN(C(C)=O)CC4)c1`, the “activity change, positive = activation” value was inactive: -22.7%.
The figure for `Cc1cc(C)n(CCc2nc3c4ccccc4nc(N4CCN(c5cccc(C)c5C)CC4)n3n2)n1` is inactive: -3.52%; for `CCCCN(C)CCCNC(=O)C1CCN(S(=O)(=O)CC)CC1` it is inactive: -3.56%.
As for `CC1=C(C)C(=O)C(C(CCCCCC(=O)O)c2ccccc2)=C(C)C1=O` (configuration not stated), the activity change, positive = activation entry was “inactive”.
As to `Cc1c2cnn(CC(=O)N3CCN(c4ccccc4)CC3)c(=O)c2c(C)n1Cc1ccccc1Cl`, the “activity change, positive = activation” value is inactive: -3.89%.
The figure for `CSc1ncc(Cl)c(C(=O)Nc2ccc(S(=O)(=O)Nc3nccc(C)n3)cc2)n1` is inactive: -15.7%.
With `CCCCN(C)CCCNC(=O)CN1N=C(c2ccc(OC)cc2)CCC1=O` the figure was inactive: -10.2%; with `CC(=O)C1=C(c2ccccc2)N(C(C)=O)n2c(nnc2C2CCCCC2)S1`, inactive: -17%.
The figure for `CC(=O)c1ccc(NC(=O)CCc2c(C)nc3c(c2C)c(=O)n(C)c(=O)n3C)cc1` is inactive: 5.34%; for `Cc1cc(C)cc(-n2cnc3cc(C(=O)NC4CCCCCC4)ccc32)c1` it is inactive: -34.1%.
For `COc1ccc(CCNC(=O)c2cc3n(n2)CCCN(Cc2ccc(C)cc2)C3=O)cc1OC`, the “activity change, positive = activation” value was inactive: -4.65%.
With `O=C(NCc1ccc(Cl)cc1)c1ccc(Cn2c(=O)c3cccn3c3cccnc32)cc1` the figure was inactive: -20.1%.
Turning to `COc1ccc(S(=O)(=O)N2CCN(Cc3nc4ccc(C)cc4o3)CC2)cc1`, the “activity change, positive = activation” value is inactive: -6.55%.
The figure for `Cc1ccc(C)c(Nc2nnc(-c3ccc(C)c(S(=O)(=O)NCC4CCCO4)c3)c3ccccc23)c1` (configuration not stated) is inactive: -37.6%.
Turning to `O=C(Cn1c(=O)n(Cc2nc(-c3ccccc3)no2)c(=O)c2ccccc21)Nc1cccc(Cl)c1`, the “activity change, positive = activation” value is inactive: -27.3%.
With `Cc1cnc(Nc2ccc(OCCN3CCCC3)cc2)nc1Nc1cccc(S(=O)(=O)NC(C)(C)C)c1` the figure was inactive: -34.1%; with `COc1ccc(-c2c(C)c3ccc(O)c(CN4CCCC(C)C4)c3oc2=O)cc1OC` (configuration not stated), inactive: -21.2%.
Take `O=C1CCc2cc(S(=O)(=O)NC(C(=O)Nc3cccc(F)c3)c3ccccc3)ccc2N1` (configuration not stated): the “activity change, positive = activation” value was inactive: 26.2%.
